PubChem BioAssay AID1508624 (National Center for Advancing Translational Sciences (NCATS), 2021)
In all, about 48,000 compounds went through this assay and about 120 (0.25%) were called active. Not shown: some 4% with an inconclusive outcome. Calls follow the shape of the dose curve; as a rule, active = well fitted activation curve with a large enough effect; inconclusive = small, poorly fitted or top-dose-only effect, or another doubt; inactive = no such curve, though single readings can be large or run the other way. This is one part of the list.

Assay: Primary qHTS for Identification of Small Molecule Activators of Huntingtin-Antisense Promoter Activity; also: nearly all actives have a fitted effect of over 55% in size
Settings: HEK293 HTT-AS promoter firefly luciferase reporter, 24 h; series mostly up to 57.5 µM; activity change, positive = activation: at the top concentration
Summary of the method: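 Firefly luciferase readout (Dual-Glo, 10 min RT) after 24 h, 37 °C compound exposure (final up to 57.5 uM) of HEK293 reporter cells cultured 24 h beforehand; PTC124 at 50 uM final as control inhibitor; activity scaled vehicle 0%, zero RLU -100%.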
Potency is read from the fitted curve at half-maximal effect.

Structure (SMILES)	activity change, positive = activation	Potency
CCOC(=O)N1CCC(NC(=O)c2cnn(-c3ccc(OC)cc3)c2C2CCN(C(=O)OC(C)(C)C)CC2)CC1	inactive: -2.93%	
Cc1ccccc1NC(=O)COc1ccc2oc3c(c2c1)CCCC3	inactive: -4.21%	
O=C(CN1C(=O)COc2ccc(S(=O)(=O)N3CCCCCC3)cc21)N1CCN(c2ccc(F)cc2)CC1	inactive: -18.2%	
COc1ccc(-c2cc3nc(C)c(CCC(=O)NCCc4ccc(Cl)cc4)c(C)n3n2)c(OC)c1	inactive: -12.7%	
Fc1cc(-c2cccc3ncc(-c4cnn(C5CCNCC5)c4)nc23)cc(F)c1CN1CCOCC1	inactive: -12.3%	
Cc1ccc(Cn2c(=O)c3cccnc3n(Cc3ccc(C)cc3)c2=O)cc1	inactive: -12.8%	
Cc1ccc(Cn2c(=O)n(-c3cccc(C(F)(F)F)c3)c(=O)c3c(C)c(C)sc32)c(C)c1	inactive: 9.26%	
Cc1cn(C)c(CC(=O)Nc2cccc(C#N)c2)c1C(=O)O	inactive: -1.9%	
Cc1ccc(CSc2ncc(Cl)c(C(=O)Oc3ccccc3F)n2)cc1	inactive: 16.8%	
Cc1ccccc1OCCn1cc(C(=O)c2ccco2)c2ccccc21	inactive: -22.1%	
Cc1ccc(-c2nn3c(=O)cc(CN4CCN(C(=O)Nc5cccc(C(F)(F)F)c5)CC4)nc3s2)cc1	inactive: 4.52%	
COc1ccc(OC)c(C2CC(=O)c3c([nH]c(C(=O)OCc4ccc(C)cc4)c3C)C2)c1 (stereo unspecified)	inactive: -37.7%	
Clc1ccc(-c2noc3ncnc(NC4CCCCC4)c23)cc1	inactive: -26.3%	
Cc1ccc(CCNC(=O)c2cnc3c(-c4ccc(F)cc4)c(C)nn3c2C)cc1	inactive: -7.86%	
COc1ccc(-c2c(C)c3cc(OC(=O)N4CCOCC4)ccc3oc2=O)cc1OC	inactive: -6.93%	
CC(CNC(=O)c1ccc(Cn2c(=O)c3cccn3c3cccnc32)cc1)c1ccccc1 (stereo unspecified)	inactive: -22.6%	
COc1cc(CNC(=O)c2ccc3nc(Cc4ccccc4)oc3c2)cc(OC)c1OC	inactive: -44.9%	
COc1cccc(C(=O)CC2(O)C(=O)N(Cc3ccccc3)c3ccccc32)c1 (stereo unspecified)	inactive: -13.4%	
NC(=O)Cn1c(=O)n(CCCCCC(=O)NCc2ccc3c(c2)OCO3)c(=O)c2sccc21	inactive: -5.59%	
COc1cccc(Cn2nnc(C(=O)NCc3ccc(Cl)cc3Cl)c2N)c1	inactive: -21.7%	
CCc1cccc(NC(=O)Cn2c(=O)n3nc(-c4cccc(F)c4)nc3c3ccccc32)c1	inactive: -3.82%	
Cc1ccccc1C(=O)Nc1sc2c(c1C(=O)N1CCC(C)CC1)CCC(C)C2 (stereo unspecified)	inactive: -20%	
COc1ccc(NC(=O)c2nnn(CC(=O)Nc3ccc(C)c(C)c3)c2N)cc1OC	inactive: -40.1%	
CCCCCCOC(=O)N=C(N)c1ccc(NCc2nc3cc(C(=O)N(CCC(=O)OCC)c4ccccn4)ccc3n2C)cc1	inactive: -23.8%	

Structure (SMILES)	activity change, positive = activation	Potency
CCOc1cc2[nH]c(=O)n(CCCCC(=O)N3CCN(c4ccccc4OC)CC3)c(=O)c2cc1OCC	inactive: -7.09%	
COc1ccc2c(c1)c1c(c(=O)n(-c3ccc(OC)c(OC)c3)c(=O)n1Cc1ccc(F)cc1)n2C	inactive: -11.9%	
Cc1cn2c(=O)cc(COC(=O)c3ccc(NC(=O)c4ccccc4C)cc3)nc2s1	inactive: -5.69%	
Cc1ccccc1CS(=O)(=O)Cc1ccc(C(=O)NCCc2ccc(Cl)cc2)o1	inactive: -38.4%	
CCOC(=O)C1CCCN(c2c(C(=O)c3ccccc3)cnc3ccc(F)cc23)C1 (stereo unspecified)	inactive: -14.9%	
COc1ccc(NC(=O)Cc2c(C(=O)O)[nH]c3ccccc23)cc1OC	inactive: -2.62%	
CCOC(=O)c1c(C)n(C)c2ccc(O)cc12	inactive	
COc1ccc(CNC(=O)Cc2coc3ccc(C)cc23)cc1	inactive: -22.4%	
Cc1ccc(NC(=O)c2oc3ccc(S(=O)(=O)N4CCOCC4)cc3c2C)c(C)c1	inactive: -19.7%	
O=C(CCS(=O)(=O)c1nc(-c2ccc3c(c2)OCO3)cc(C(F)(F)F)n1)Nc1ccc(Br)cc1	inactive: -51.7%	
O=C1CC(c2c(F)cccc2Cl)c2c(ccc3ccccc23)N1 (stereo unspecified)	inactive: -37.9%	
COc1cc(C2c3c(oc4ccc(F)cc4c3=O)C(=O)N2Cc2ccc3c(c2)OCO3)ccc1O (stereo unspecified)	inactive: -9.08%	
CCCCN(CC)C(=O)c1c[nH]c2ccc(S(=O)(=O)N(C)c3ccc(Cl)cc3)cc2c1=O	inactive: -35.6%	
COc1ccc(C(=O)Nc2ccc3nc4c(c(Nc5ccccc5OC)c3c2)CCCC4)c(OC)c1	inactive: -23.8%	
COC(=O)c1cccnc1-n1c(=O)c2cccnc2n(CC(=O)Nc2cccc(C)c2)c1=O	inactive: 7.25%	
CC(C)Oc1ccc(CNC(=O)c2ccc3c(c2)nc2n3CCOC2)cc1	inactive: 24.1%	
COc1cc(NC(=O)N2CCSc3ccccc32)cc(OC)c1OC	inactive: -9.34%	
CCN(c1ccccc1C)S(=O)(=O)c1nnc(NC(=O)c2ccccc2C)s1	inactive: -32.3%	
Nc1cc(-c2ccncc2)c[nH]c1=O	inactive: -9.13%	
CCOc1ccc(CN2CCN(Cc3ccc4c(c3)c3ccccc3n4CC)CC2)cc1	inactive: -57.7%	
O=C(CCn1c(=O)c2ccccc2n(Cc2cccc(F)c2)c1=O)NCc1ccc2c(c1)OCO2	inactive: -14.3%	
CCOc1ccc(C(=O)/C=C/c2cn(CC(O)CN3CCc4ccccc43)c3ccccc23)cc1 (stereo unspecified)	inactive: -15.4%	
Cc1cc(C)cc(N2C(=O)N(Cc3cc(=O)n4ccccc4n3)c3ccccc3S2(=O)=O)c1	inactive: -34%	
COc1cc(OC)c(OC)cc1CN1CCc2nc(N3CCN(C)CC3)ncc2C1	inactive: -13.5%	

Structure (SMILES)	activity change, positive = activation	Potency
Cc1ccc(-c2c(C(=O)N3CCN(c4ccc(F)cc4)CC3)oc(=O)c3ccccc23)cc1	inactive: -16.9%	
CCc1nn(CC(=O)NCc2ccc(C)cc2)c(=O)c2cc3occc3n12	inactive: -7.13%	
COc1ccc(N2CCN(c3nc4ccc(C(=O)c5ccccc5)cc4n4cnnc34)CC2)cc1	inactive: -14.6%	
Cc1cccc2c1-c1sc(C(=O)NCCCN3CCN(c4ccccc4F)CC3)cc1CO2	inactive: -38.1%	
N#Cc1ccc(Oc2ccc3c(c2)COB3O)cc1	inactive: 0.205%	
CC(=O)Nc1nnc2n1CCS2	inactive: -16.5%	
Cc1ccc(CN2CCC(CNC(=O)Nc3ccc(C)c(C)c3)C2)cc1 (stereo unspecified)	inactive: -15.4%	
COc1ccc(C)cc1NC(=O)c1nnn(-c2c(C)cccc2C)c1C	inactive: -14.3%	
COc1ccc(C)cc1NC(=O)c1oc2ccc(S(=O)(=O)N3CCC4(CC3)OCCO4)cc2c1C	inactive: -10%	
Cc1ccc(C)c(NC(=O)/C(C#N)=C/c2ccc(C(C)C)cc2)c1	inactive: 19.2%	
CC(C)N(C(=O)Cn1cc(SCC(=O)Nc2ccccc2C(F)(F)F)c2ccccc21)C(C)C	inactive: -19.2%	
CCCCc1ccc2nc(NC(=O)OC)[nH]c2c1	inactive	
CCOc1ccc(C2C(C(=O)Nc3ccccc3C)=C(C)Nc3nnnn32)cc1 (stereo unspecified)	inactive: -7.47%	
CC(N)C12CC3CC(CC(C3)C1)C2 (stereo unspecified)	inactive	
CCCc1nnc(NC(=O)Nc2ccccc2Cl)s1		active: 3.55 µM
CCOc1ccc(OCC)c(NC(=O)C2CCCN(S(=O)(=O)c3cc(Br)cc4c3N(C(=O)CC)CC4)C2)c1 (stereo unspecified)	inactive: -6.67%	
Cc1nc2nc(C)c(NS(=O)(=O)c3ccc(CC(C)C)cc3)c(=O)n2[nH]1	inactive: -0.698%	
Cc1nn(C(=O)c2c(F)cccc2F)c(C)c1S(=O)(=O)N1CCCCCC1	inactive: -4.95%	
CCn1c(CN2CCOCC2)nc2cc(NC(=O)c3cccc([N+](=O)[O-])c3)ccc21	inactive: 14.7%	
COc1ccc(NC(=O)Cn2cc(C(=O)c3ccccc3OC)c(=O)c3ccc(C)nc32)cc1OC	inactive: -29.4%	
Cn1c(=O)c2c(-c3ccccc3)n(CCCO)cc2n(C)c1=O	inactive: -6.16%	
CCOC(=O)c1cc(-c2ccccc2)n(CCCC(=O)Nc2ccccc2C)c1C	inactive: -40.7%	
COc1ccc(-n2ccnc(NCc3ccccc3Cl)c2=O)cc1OC	inactive: -6.04%	
COc1ccc(C(=O)c2oc3ccccc3c2NC(=O)c2cccc(OC)c2)cc1	inactive: -9.54%	

Structure (SMILES)	activity change, positive = activation	Potency
CCN(CC)CCOC(=O)c1ccc(NC(=O)c2cc3c(s2)-c2ccccc2OC3)cc1	inactive: -22.9%	
COc1ccc(CNC(=O)c2sc3nc4n(c(=O)c3c2C)CCCCC4)cc1	inactive: 13.4%	
CCc1ccc(NC(=O)CN2C(=O)c3ccccc3Sc3ccc(C(=O)N4CCCC4)cc32)cc1	inactive: -34.1%	
Clc1cccc(C2=NC(c3cccs3)=Nc3ccc(Br)cc3N2)c1	inactive: 9.01%	
Cc1nc(-c2ccc(S(=O)(=O)Nc3ccc(Cl)c(C(F)(F)F)c3)cc2)co1	inactive: -22.6%	
CCN(CC)CCOC(=O)c1ccc(Nc2c3c(nc4ccccc24)CCC3)cc1	inactive: -20.9%	
COc1ccc(CNC(=O)C(CC(C)C)N2Cc3ccccc3C2=O)cc1 (stereo unspecified)	inactive: -16.6%	
Cc1ccc2nc(COc3cccc(NC(=O)c4ccccc4Cl)c3)cc(=O)n2c1	inactive: 0.848%	
CC(C)CN(CCNC(=O)c1cc(-c2cccs2)nc2ccccc12)CC(C)C	inactive: -9.2%	
CCOc1ccccc1CNC(=O)c1cnc2sc(N(CC)CC)nn2c1=O	inactive: -24.6%	
COc1ccccc1/C=C/c1nc(C#N)c(NCC(C)C)o1	inactive: 5.93%	
Cn1c(=O)c2c(c3ccccc31)OC(=O)CC2c1cccc(Cl)c1 (stereo unspecified)	inactive: -6.82%	
Cc1ccc(-c2nc(CCNC(=O)C(=O)Nc3c(C)cccc3C)cs2)cc1	inactive: -28.4%	
CN(C)C1CCN(C(=O)c2ccc(NC(=O)Nc3nc(N4CCOCC4)nc(N4CCOCC4)n3)cc2)CC1	inactive: -37.5%	
COc1cc(NC(=O)CN2Cc3ccccc3C2=O)cc(OC)c1OC	inactive: 8.45%	
CCOCCn1cnc2sc(C(=O)Nc3ccccc3C(=O)OC)c(C)c2c1=O	inactive: -6.34% [at 11.5 µM, percent change from vehicle, -100% = no light]	
O=C(Cn1ccc2cc(S(=O)(=O)N3CCCCC3)ccc21)NCc1ccccc1Cl	inactive: -18%	
CCOc1cccc(CC(=O)N2CCc3c([nH]c4ccccc34)C2c2ccc(SC)cc2)c1OCC (stereo unspecified)	inactive: -19.3%	
Cc1c(C(=O)NCCO)[n+](=O)c2ccccc2n1[O-]	inactive: -0.905%	
CCOc1ccc(NC(=O)Cn2nc(Cc3ccncc3)c3ccccc3c2=O)cc1	inactive: -21.7%	
COc1ccc(N2C(=O)CSC23C(=O)N(Cc2ccc(C)cc2)c2ccccc23)cc1Cl (stereo unspecified)	inactive: -30.4%	
CCCN(CCC)C(=O)c1nn(C)c2c1CSc1ccc(C)cc1-2	inactive: 8.3%	
CC(C)c1nc2ccc(C(=O)NC(C)c3ccccc3)cc2o1 (stereo unspecified)	inactive: 27.9%	
O=C(NC1CCCC1)c1ccc(CSc2nc3cccnc3n2Cc2ccc(F)cc2)cc1	inactive: -8.79%	
